Test results taken from the supplement of paper PMC4604168 (melanoma cell lines).
The other results are listed elsewhere or left out. Single values are uncertain, as repeats are few or missing.

Assays:
Assay in all cases: cell count relative to DMSO control; melanoma cells; higher = more viable cells
Conditions in all cases: library dose: low library concentration; 72 h
COLO792 = tested on: COLO792
COLO800 = tested on: COLO800
COLO829 = tested on: COLO829
G361 = tested on: G361
IPC-298 = tested on: IPC-298
IST-MEL1 = tested on: IST-MEL1
LB2518-MEL = tested on: LB2518-MEL
LOXIMVI = tested on: LOXIMVI
MEL-HO = tested on: MEL-HO
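Also: cell number obtained by counting DAPI-stained nuclei in high-throughput microscope images with image analysis software, screen run in 1,536-well plates.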

| SMILES | cell count (COLO792) [%] | cell count (COLO800) [%] | cell count (COLO829) [%] | cell count (G361) [%] | cell count (IPC-298) [%] | cell count (IST-MEL1) [%] | cell count (LB2518-MEL) [%] | cell count (LOXIMVI) [%] | cell count (MEL-HO) [%] |
| --- | --- | --- | --- | --- | --- | --- | --- | --- | --- |
| O=C(O)[C@@H]1[O][Sb](=[O])([O][Sb]2(=[O])[O][C@H]([C@H](O)CO)[C@H](O)[C@H](C(=O)O)[O]2)[O][C@H]([C@H](O)CO)[C@@H]1O (some centres not stated) [stibogluconate] + Cc1cc(SCc2sc(-c3ccc(C(F)(F)F)c(F)c3)nc2C)ccc1OCC(=O)O [GW0742] (first compound 2 µM, partner dose 2 µM) | 112 | 97.8 | 84.2 | 93.8 | 105 | 103 | 107 | 118 | 102 |
| C[C@@H](Oc1cc(-c2cnn(C3CCNCC3)c2)cnc1N)c1c(Cl)ccc(F)c1Cl [Crizotinib] + O=C(Oc1ccc([N+](=O)[O-])cc1)N1CCC(C(O)(c2ccc3c(c2)OCO3)c2ccc3c(c2)OCO3)CC1 [JZL184] (first compound 0.2 µM, partner dose 1 µM) | 96.6 | 127 | 101 | 105 | 98.3 | 111 | 106 | 126 | 104 |
| NC1(c2ccc(-c3nc4ccn5c(=O)[nH]nc5c4cc3-c3ccccc3)cc2)CCC1 + O=C(Oc1ccc([N+](=O)[O-])cc1)N1CCC(C(O)(c2ccc3c(c2)OCO3)c2ccc3c(c2)OCO3)CC1 [JZL184] (first compound 0.4 µM, partner dose 1 µM) | 59 | 79.4 | 83.9 | 111 | 99.8 | 91.5 | 99.6 | 120 | 90.1 |
| CNC(=O)c1cc(Oc2ccc(NC(=O)Nc3ccc(Cl)c(C(F)(F)F)c3)cc2)ccn1 [sorafenib] + Cc1cc(SCc2sc(-c3ccc(C(F)(F)F)c(F)c3)nc2C)ccc1OCC(=O)O [GW0742] (first compound 0.4 µM, partner dose 2 µM) | 107 | 114 | 95.1 | 124 | 94.8 | 103 | 112 | 85 | 113 |
| OCc1c[nH]c2ccccc12 [Indole-3-carbinol] + O=C(Oc1ccc([N+](=O)[O-])cc1)N1CCC(C(O)(c2ccc3c(c2)OCO3)c2ccc3c(c2)OCO3)CC1 [JZL184] (first compound 0.8 µM, partner dose 1 µM) | 101 | 156 | 107 | 95.4 | 106 | 104 | 108 | 97.2 | 105 |
| C=CCNC1=C2C[C@@H](C)C[C@H](OC)[C@H](O)[C@@H](C)/C=C(\C)[C@H](OC(N)=O)[C@@H](OC)/C=C\C=C(/C)C(=O)NC(=CC1=O)C2=O [Tanespimycin] + O=C(Oc1ccc([N+](=O)[O-])cc1)N1CCC(C(O)(c2ccc3c(c2)OCO3)c2ccc3c(c2)OCO3)CC1 [JZL184] (first compound 0.002 µM, partner dose 1 µM) | 95.6 | 158 | 114 | 97.3 | 99.7 | 101 | 119 | 116 | 111 |
| CN(c1ncccc1CNc1nc(Nc2ccc3c(c2)CC(=O)N3)ncc1C(F)(F)F)S(C)(=O)=O + O=C(Oc1ccc([N+](=O)[O-])cc1)N1CCC(C(O)(c2ccc3c(c2)OCO3)c2ccc3c(c2)OCO3)CC1 [JZL184] (first compound 0.08 µM, partner dose 1 µM) | 93.7 | 131 | 95.5 | 96.6 | 99.1 | 103 | 71.8 | 116 | 80.5 |
| CCCCCCCCc1ccc(CCC(N)(CO)CO)cc1 [fingolimod] + Cc1cc(SCc2sc(-c3ccc(C(F)(F)F)c(F)c3)nc2C)ccc1OCC(=O)O [GW0742] (first compound 2 µM, partner dose 2 µM) | 97.6 | 59.5 | 117 | 95.1 | 96.8 | 95.5 | 103 | 132 | 93.7 |
| C[C@@H](N)c1ccc(C(=O)Nc2ccnc3[nH]ccc23)cc1 + Cc1cc(SCc2sc(-c3ccc(C(F)(F)F)c(F)c3)nc2C)ccc1OCC(=O)O [GW0742] (first compound 0.4 µM, partner dose 2 µM) | 79.9 | 111 | 102 | 89.6 | 103 | 98.1 | 115 | 136 | 65.2 |
| Cn1c(=O)n(-c2ccc(C(C)(C)C#N)cc2)c2c3cc(-c4cnc5ccccc5c4)ccc3ncc21 + Cc1cc(SCc2sc(-c3ccc(C(F)(F)F)c(F)c3)nc2C)ccc1OCC(=O)O [GW0742] (first compound 0.004 µM, partner dose 2 µM) | 101 | 102 | 88.4 | 105 | 100 | 93.5 | 104 | 143 | 111 |
| Cn1sc(=O)n(Cc2ccccc2)c1=O + C/C(O)=C(\C#N)C(=O)Nc1cc(Br)ccc1Br [LFM-A13] (first compound 0.4 µM, partner dose 2 µM) | 99.3 | 74.3 | 88.9 | 104 | 98.5 | 94.8 | 96.8 | 72 | 94.9 |
| CCN(CC)CCNC(=O)c1c(C)[nH]c(/C=C2\C(=O)Nc3ccc(F)cc32)c1C [sunitinib] + O=C(Oc1ccc([N+](=O)[O-])cc1)N1CCC(C(O)(c2ccc3c(c2)OCO3)c2ccc3c(c2)OCO3)CC1 [JZL184] (first compound 0.4 µM, partner dose 1 µM) | 94.4 | 76.7 | 132 | 97.2 | 105 | 102 | 103 | 112 | 95.4 |
| C[C@]1(O)C[C@@H](c2nc(-c3ccc4ccc(-c5ccccc5)nc4c3)c3c(N)nccn32)C1 + O=C(Oc1ccc([N+](=O)[O-])cc1)N1CCC(C(O)(c2ccc3c(c2)OCO3)c2ccc3c(c2)OCO3)CC1 [JZL184] (first compound 0.4 µM, partner dose 1 µM) | 93.7 | 59.2 | 92.2 | 82 | 93.1 | 111 | 100 | 57.7 | 96.6 |
| N#CC[C@H](C1CCCC1)n1cc(-c2ncnc3[nH]ccc23)cn1 [ruxolitinib] + Cc1cc(SCc2sc(-c3ccc(C(F)(F)F)c(F)c3)nc2C)ccc1OCC(=O)O [GW0742] (first compound 1 µM, partner dose 2 µM) | 100 | 150 | 106 | 89.8 | 101 | 101 |  | 91.1 | 97.3 |
| O=C(Nc1cc(C(F)(F)F)cc(C(F)(F)F)c1)c1cc(Cl)ccc1O + O=C(Oc1ccc([N+](=O)[O-])cc1)N1CCC(C(O)(c2ccc3c(c2)OCO3)c2ccc3c(c2)OCO3)CC1 [JZL184] (first compound 0.016 µM, partner dose 1 µM) | 94.2 | 92.5 | 97.1 | 101 | 95.7 | 102 | 97.9 | 81.6 | 105 |
| O=C(O)[C@@H]1[O][Sb](=[O])([O][Sb]2(=[O])[O][C@H]([C@H](O)CO)[C@H](O)[C@H](C(=O)O)[O]2)[O][C@H]([C@H](O)CO)[C@@H]1O (some centres not stated) [stibogluconate] + C/C(O)=C(\C#N)C(=O)Nc1cc(Br)ccc1Br [LFM-A13] (first compound 2 µM, partner dose 2 µM) | 86.7 | 155 | 91 | 112 | 111 | 98.9 | 105 | 73.9 | 97.9 |
| CCCS(=O)(=O)Nc1ccc(F)c(C(=O)c2c[nH]c3ncc(Cl)cc23)c1F + Cc1cc(SCc2sc(-c3ccc(C(F)(F)F)c(F)c3)nc2C)ccc1OCC(=O)O [GW0742] (first compound 0.08 µM, partner dose 2 µM) | 107 | 103 | 108 | 89.6 | 90.9 | 91.3 | 118 | 63.2 | 98.1 |
| Cc1cn(-c2cc(NC(=O)c3ccc(C)c(Nc4nccc(-c5cccnc5)n4)c3)cc(C(F)(F)F)c2)cn1 [nilotinib] + Cc1cc(SCc2sc(-c3ccc(C(F)(F)F)c(F)c3)nc2C)ccc1OCC(=O)O [GW0742] (first compound 0.2 µM, partner dose 2 µM) | 108 | 122 | 115 | 90.4 | 97.3 | 93.7 | 108 | 120 | 91.7 |
| O=c1[nH]nc(Sc2ncc([N+](=O)[O-])s2)n1-c1ccc2c(c1)OCCO2 + C/C(O)=C(\C#N)C(=O)Nc1cc(Br)ccc1Br [LFM-A13] (first compound 0.2 µM, partner dose 2 µM) | 91.4 | 93 | 98.1 | 84.9 | 101 | 97.3 | 106 | 74.2 | 116 |
| Cn1sc(=O)n(Cc2ccccc2)c1=O + O=C(Oc1ccc([N+](=O)[O-])cc1)N1CCC(C(O)(c2ccc3c(c2)OCO3)c2ccc3c(c2)OCO3)CC1 [JZL184] (first compound 0.4 µM, partner dose 1 µM) | 91.6 | 119 | 117 | 112 | 96.4 | 103 | 115 | 104 | 118 |
| Nc1nc(F)nc2c1ncn2[C@@H]1O[C@H](CO)[C@@H](O)[C@@H]1O [fludarabine] + Cc1cc(SCc2sc(-c3ccc(C(F)(F)F)c(F)c3)nc2C)ccc1OCC(=O)O [GW0742] (first compound 0.2 µM, partner dose 2 µM) | 93.5 | 106 | 96 | 87.4 | 93 | 93.1 | 107 | 112 | 98 |
| COc1cc([C@@H]2c3cc4c(cc3[C@@H](O[C@@H]3O[C@@H]5CO[C@@H](C)O[C@H]5[C@H](O)[C@H]3O)[C@H]3COC(=O)[C@H]23)OCO4)cc(OC)c1O [etoposide] + C/C(O)=C(\C#N)C(=O)Nc1cc(Br)ccc1Br [LFM-A13] (first compound 0.02 µM, partner dose 2 µM) | 87.3 | 84.6 | 96.6 | 91.7 | 99.5 | 89.3 | 91.3 | 106 | 99.2 |
